The whole screen tested about 410,000 compounds, of which about 5,000 (1.2%) were called active. The inconclusive results got no clear call from the source; some entries with a clear call stand among them for comparison. Calls come from the whole dose curve; as a rule, active = well fitted inhibition curve with a large enough effect; inconclusive = small, poorly fitted or top-dose-only effect; inactive = no such curve, though single readings can be large or run the other way. Potencies of inconclusive entries are doubtful fits and often do not repeat.
test: qHTS for Inhibitors of TGF-b; conditions: HepG2 CAGA-GFP TGF-b/SMAD3 reporter, GFP fluorescence, 18 h, TGF-beta stimulated, 500 pg/mL final; series mostly up to 46.1 µM; note: nearly all actives have a fitted effect of over 65% in size
Summary of the method: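 Per well, imaged GFP fluorescence of HEPG2 CAGA-GFP cells gives the signal; cells get compound, then TGF-beta (500 pg/mL final), 18 h at 37 degrees C; %Activity versus -TGF-beta and +DMSO controls.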
Potency is the fitted concentration of half-maximal effect; tags give direction and shape of the fitted curve.

SMILES	Potency
CCOc1ccc(CCNC(=O)COC(=O)CCc2cc(OC)c(OC)c(OC)c2)cc1OCC	inactive
COc1ccc(/C(C)=N/OCC(=O)Nc2nc3ccccc3s2)cc1OC	inconclusive: 5.01 µM [inhibitor, partial curve, poor fit]
COCCn1c(CN2CCN(c3ccc(OC)cc3)CC2)nc2c1c(=O)n(C)c(=O)n2C	inactive
COc1cccc(NC(=O)CN(C)C(=O)c2cc(-c3cccc(Br)c3)nc3ccccc23)c1	inconclusive: 25.1 µM [inhibitor, single point]
CC(=O)Nc1cccc(NC(=O)c2cc(-c3cccnc3)nc3ccc(Cl)cc23)c1	inactive
CCOC(=O)C(=Cc1ccc(-n2cncn2)cc1)C(=O)OCC	inconclusive: 35.5 µM [inhibitor, single point]
Cc1ccc(S(=O)(=O)c2nc(-c3cccs3)oc2SCC(N)=O)cc1	inactive
Cc1ccc(N2CCN(C(=S)c3ccc(N(C)C)cc3)CC2)cc1	inconclusive: 17.8 µM [inhibitor, single point]
COc1cc(/C=N/NC(=O)c2nnn(-c3nonc3N)c2C(C)C)ccc1OCc1ccccc1	inconclusive: 20 µM [inhibitor, partial curve, poor fit]
CCN(CC)CCCN(Cc1cc2cc3c(cc2[nH]c1=O)OCO3)C(=S)Nc1ccccc1	inactive
Cc1cc2cc(CN(CCCO)S(=O)(=O)c3cccc4nsnc34)c(=O)[nH]c2cc1C	inconclusive: 35.5 µM [inhibitor, single point]
O=C(COc1ccc2c3c(c(=O)oc2c1)CCC3)Nc1ccc(CN2CCOCC2)cc1	inactive
O=C(COc1ccc(Br)cc1)Nc1ccc(NC(=O)c2ccccc2)cc1	inconclusive: 3.16 µM [inhibitor, single point]
CCc1ccc(NC(=O)Nc2cccc(OC)c2)cc1	inconclusive: 15.8 µM [inhibitor, partial curve, poor fit]
O=C(CCN1C(=O)C2C3CCC(C3)C2C1=O)OCC(=O)c1cccc([N+](=O)[O-])c1 (stereo not drawn)	inconclusive: 35.5 µM [inhibitor, single point]
O=C1c2cccc3c([N+](=O)[O-])c(O)cc(c23)C(=O)N1Nc1ccccc1	inconclusive: 10 µM [inhibitor, single point]
CCOc1ccc(/C=C/c2ccnc3ccccc23)cc1OCC	inconclusive: 14.1 µM [inhibitor, single point]
c1ccc(-c2ccc(-c3nc(-c4cccnc4)no3)cc2)cc1	inconclusive: 35.5 µM [inhibitor, single point]
O=C(COC(=O)c1ccccc1C(=O)c1ccc(Cl)c([N+](=O)[O-])c1)NC1CCCCCC1	inconclusive: 35.5 µM [inhibitor, single point]
CCCCN1C(=O)C2(NNc3ccccc3O2)c2ccccc21 (stereo not drawn)	inconclusive: 15.8 µM [inhibitor, single point]
CCN1C(=O)c2cccc3c(S(=O)(=O)N(C)C)ccc1c23	inactive
O=C1C(Cl)=C(NCCCN2CCOCC2)C(=O)c2ccccc21	inconclusive: 31.6 µM [inhibitor, single point]
C[C@]12c3[nH]c4cc(-c5ccco5)ccc4c3CCN1C(=O)[C@@H](CC(=O)NCCC1=CCCCC1)C[C@@H]2C(=O)N1CCOCC1	active: 11.2 µM

SMILES	Potency
COc1ccccc1/C=C/C(=O)c1ccccc1	inconclusive: 35.5 µM [inhibitor, single point]
CC(C)Cc1ccc(C(C)/C=C2/CCC(CN3CCCCC3)C2=O)cc1 (stereo not drawn)	active: 15.8 µM
CCOc1ccc(NS(=O)(=O)c2csc(C(N)=O)c2)cc1	inactive
CCOc1ccccc1N1CCN(C(=O)c2ccc(-c3ccc(OC(C)=O)cc3)cc2)CC1	inconclusive: 12.6 µM [inhibitor, single point]
COc1cccc(-c2ccc(NC(=O)C3CCCN(Cc4cnc(N(C)C)s4)C3)cc2)c1 (stereo not drawn)	inconclusive: 35.5 µM [inhibitor, single point]
CSc1ccc(CN2CCC2(C)C(=O)NC2CCc3ccccc32)cc1 (stereo not drawn)	inconclusive: 35.5 µM [inhibitor, single point]
COc1ccc(N2CCN(C3=NS(=O)(=O)C(c4cccc(Br)c4)=C3C)CC2)cc1	inconclusive: 0.112 µM [inhibitor, full curve, poor fit]
CCCCNC(=S)NNC(=O)c1csc(C)c1CC	inactive
O=C(Oc1cncc(Cl)c1)c1ccco1	inactive
COc1ccc(/C=C/c2ccnc3ccccc23)cc1	inconclusive: 35.5 µM [inhibitor, single point]
CCOc1ccc(Cl)cc1-c1cc(C(=O)Nc2cc(OC)c(OC)c(OC)c2)[nH]n1	inconclusive: 35.5 µM [inhibitor, single point]
O=C(c1ccccc1Cl)n1nc(-c2cccnc2)nc1NCc1ccc(F)cc1	inconclusive: 5.01 µM [inhibitor, full curve, poor fit]
COc1ccc(C(=O)Nc2ccccc2C(=O)NC(Cc2ccc(O)cc2)C(=O)NNC(=O)c2ccccc2Cl)cc1 (stereo not drawn)	inconclusive: 5.62 µM [inhibitor, single point]
O=C(NCCCN1CCCC1)c1ccc2c(c1)N(Cc1cccc(Cl)c1)C(=O)c1ccccc1S2(=O)=O	inconclusive: 22.4 µM [inhibitor, single point]
COC(=O)c1scc(-c2ccccc2)c1S(=O)(=O)Nc1cccc(C)c1C	inconclusive: 35.5 µM [inhibitor, single point]
CCCCOc1ccc(C(=O)N(Cc2ccc(C(C)C)cc2)C2CCS(=O)(=O)C2)cc1 (stereo not drawn)	inconclusive: 35.5 µM [inhibitor, single point]
COC(=O)c1ccc(/C=C/c2ccc3cccc(OC(C)=O)c3n2)cc1	inconclusive: 1.26 µM [inhibitor, full curve, poor fit]
CCOc1ccc(NC(=S)N(CCc2c(C)[nH]c3ccc(C)cc23)Cc2ccco2)cc1	inconclusive: 10 µM [inhibitor, partial curve, poor fit]
Cc1ccccc1Nc1c(-c2ccc(N3CCOCC3)cc2)nc2ncccn12	inactive
CCCCN(C(=O)CSCC(=O)Nc1ccc(C)cc1)c1c(N)n(CC(C)C)c(=O)[nH]c1=O	inactive
CSc1ncccc1C(=O)OCC(=O)Nc1ccc(C)c(S(=O)(=O)N2CCOCC2)c1	inactive
CCCCC(=O)Nc1nnc(SCC(=O)Nc2ccc(OC)cc2)s1	inconclusive: 0.794 µM [inhibitor, full curve, poor fit]
Cc1cc2nc(-c3ccco3)cc(C(F)(F)F)n2n1	inactive

SMILES	Potency
COc1cccc(-c2cc3nc(NCCCN(C)C)n(C)c(=O)c3s2)c1	inconclusive: 17.8 µM [inhibitor, single point]
CC(C)NC(=O)CSc1nnc(-c2ccc(F)cc2)c2ccccc12	inconclusive: 35.5 µM [inhibitor, single point]
N#C/C(=C/c1ccc(F)cc1)c1nc(CCN2C(=O)c3ccccc3C2=O)cs1	inactive
CN(C)S(=O)(=O)c1cccc(NC(=O)CCc2nc3sc4c(c3c(=O)[nH]2)CCCC4)c1	inconclusive: 12.6 µM [inhibitor, partial curve, poor fit]
COC(=O)c1cc2c(ccn2-c2ccc(F)cc2)n1Cc1cccc(OC)c1	inactive
Cc1ccc2c(c1)NC(c1cccs1)C1=C(CC(C)(C)CC1=O)N2 (stereo not drawn)	inconclusive: 17.8 µM [inhibitor, single point]
CC(=O)Nc1ccc(S(=O)(=O)N2CCC(Oc3ccc(-n4cnnn4)cc3)CC2)cc1	inconclusive: 35.5 µM [inhibitor, single point]
CC1CCN(C(=O)c2cnn(-c3cccc(Cl)c3)c2C2CCN(C(=O)OC(C)(C)C)CC2)CC1	inconclusive: 20 µM [inhibitor, partial curve, poor fit]
CCOC(=O)CNS(=O)(=O)c1cc(-c2nnc(Nc3ccc4c(c3)OCO4)c3ccccc23)ccc1C	inconclusive: 35.5 µM [inhibitor, single point]
Clc1ccc(-c2cn3nc4c(nc3n2)CCCC4)cc1	inactive
C[C@H]1CN([C@@H](C)CO)C(=O)CCCn2nncc2CO[C@@H]1CN(C)C(=O)Nc1cccc2ccccc12	inactive
COc1ccc(NC(=O)c2ccc(-c3csc(C)n3)cc2)cc1	inactive
COc1cc(C(=O)N2CCN(c3ccccc3)CC2)c2ccccc2n1	inactive
CSc1ccc(C(=O)C2CCCN(C(=O)c3ccc4c(c3)no[n+]4[O-])C2)cc1 (stereo not drawn)	inconclusive: 8.91 µM [inhibitor, partial curve, poor fit]
CCC(C(=O)NC1CC1)n1nc(C)c2c(C)n(-c3ccc(C)cc3)nc2c1=O (stereo not drawn)	inactive
COc1cc2c(cc1OC)CN(Cc1ccc(OC)c(C)c1OC)CC2	inactive
Cc1cc(C)c(NC(=O)c2cc3c(=O)n4ccccc4nc3n2C)c(C)c1	inconclusive: 10 µM [inhibitor, partial curve, poor fit]
Cc1nc(SCC(=O)c2cc3ccccc3oc2=O)c(C#N)c(-c2ccccc2)c1C(=O)Nc1ccccc1	inactive
Cc1cccc(NS(=O)(=O)c2csc(C(N)=O)c2)c1C	inactive
CCOc1cc(NC(=O)C2CC2)c(OCC)cc1NC(=O)c1ccccc1OCC	inactive
Oc1ccc(CN2CCCc3ccccc32)c2cccnc12	inconclusive: 15.8 µM [inhibitor, partial curve, poor fit]
O=C(COc1ccccc1)N/N=C/c1ccc([N+](=O)[O-])o1	active: 11.2 µM
